# Measured values: PubChem BioAssay AID445 (National Center for Advancing Translational Sciences (NCATS), 2006)
# About 40 (0.04%) of roughly 110,000 compounds were called active. Inconclusive results, whose numbers are uncertain, are shown with a selection of clear calls. Calls come from the whole dose curve; as a rule, active = well fitted curve in the direction sought with a large enough effect in the signal ratio (not every such curve was filed as active); inconclusive = small, poorly fitted or top-dose-only effect, or a change in a side signal; inactive = flat fitted curve, though single readings scatter; the % refers to the signal ratio. Where the call is inconclusive, the potency comes from a doubtful curve fit.
# Assay: IkB Signaling;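 for IkBa stabilization activation: 0% = basal untreated cells and 100% = reference inhibitor full response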
# Conditions: ABC-DLBCL IkBa-CBG/CBR dual luciferase ratio (green luciferase fused to IkBa over red control in OCI-Ly3 lymphoma cells), 4 h; IkBa stabilization activation: at 57.1 µM (top of the series), scaled: untreated 0%, proteasome inhibitor 100% unless noted
# Method in brief: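 Luminescence ratio of IκBα-fused green versus native red beetle luciferase in OCI-Ly3 cells, 4 h post-doxycycline with compound; red signal alone, scaled from basal (0%) to zero light (-100%), flagged nonspecific or cytotoxic effects.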
# Potency is the fitted concentration of half-maximal effect.
SMILES,IkBa stabilization activation,Potency
COC(=O)c1cc2sc(C)cc2n1Cc1ccc(Br)cc1F,inactive,
Cc1cc(C)c2c(SCc3ccc(Cl)cc3Cl)nc(N)nc2n1,"inactive: 1.56% [at 11.4 µM, scaled: untreated 0%, proteasome inhibitor 100%]",
Cc1ccc2c(=O)cc(CSc3nnc(-c4ccccc4)n3C)[nH]c2c1C,inconclusive: 1.03% [signal inhibitor],
CN(C)C(=O)c1ccc(-c2nc(N(C)C)c3ccccc3n2)cc1,"inactive: 0.826% [at 11.4 µM, scaled: untreated 0%, proteasome inhibitor 100%]",
Cc1cc(C)c(NC(=O)c2cc3c(=O)n4ccccc4nc3n2C)c(C)c1,inactive,
CCCNC(=O)c1cc(-c2ccco2)on1,,"inconclusive: 25.1 µM [signal inhibitor, single point]"
COCCCNC(=O)c1sc2nc(C)c(C(=O)Nc3ccc(C)cc3C)c(-c3ccc(Cl)cc3)c2c1N,inconclusive: 11.7% [signal inhibitor],
CC(=O)Nc1ccc(S(=O)(=O)N2CCC(Oc3ccc(-n4cnnn4)cc3)CC2)cc1,inconclusive: 4% [signal inhibitor],
CCn1c(C(C#N)/C(=N\S(=O)(=O)c2cccs2)c2ccccc2)nc2ccccc21 (centres undefined),inconclusive: 5.09% [signal activator],
CC1CCN(C(=O)c2cnn(-c3cccc(Cl)c3)c2C2CCN(C(=O)OC(C)(C)C)CC2)CC1,inconclusive: 1.59% [signal inhibitor],
COc1ccc(OCC(=O)NCC(c2ccc(Cl)cc2)N2CCCCC2)cc1 (centres undefined),inconclusive: 0.362% [signal inhibitor],
COc1ccc(NC(=O)c2c(-c3ccccc3)c(-c3ccccc3)nn(C)c2=O)c(OC)c1,inconclusive: 4.33% [signal inhibitor],
COc1ccccc1CNC(=O)Cn1ncc2c3ccccc3n(Cc3ccccc3C)c2c1=O,inactive,
COc1ccc(NCc2cc3cc4c(cc3n(CC(=O)Nc3ccc(C)cc3)c2=O)OCO4)cc1,inactive,
Fc1ccc(-c2nnc3sc(C4COc5ccccc5O4)nn23)cc1 (centres undefined),inactive,
CCOC(=O)c1ccc(NS(=O)(=O)c2ccc(Br)s2)cc1,inactive,
COc1ccccc1NC(=O)CSc1oc(-c2cccs2)nc1S(=O)(=O)c1ccc(Br)cc1,inconclusive: 16.3% [signal inhibitor],
COc1ccc(-c2nc(SCC(=O)Nc3ccc4c(c3)OCO4)c(-c3ccc(OC)cc3)[nH]2)cc1,inconclusive: 6.75% [signal inhibitor],
O=C(NCc1ccco1)NCC(F)(F)F,inactive,
COC(=O)C1=C(CSc2nc3ccccc3o2)NC(=O)NC1c1cc(C)ccc1C (centres undefined),inconclusive: 7.44% [signal inhibitor],
COc1cccc(-n2ccnc2SCC(=O)Nc2ccccc2)c1,inactive,
Oc1ccc(CN2CCCc3ccccc32)c2cccnc12,inactive,
Cc1cnc(C(=O)OCC(=O)Nc2oc(-c3ccccc3)c(-c3ccccc3)c2C#N)cn1,inconclusive: 4.93% [signal inhibitor],

SMILES,IkBa stabilization activation,Potency
O=C(NCCc1csc(-c2cccc(F)c2)n1)c1cccs1,inactive,
CCC(Sc1nnc(-c2ccc(C)c(Cl)c2)n1CC)C(=O)Nc1nccs1 (centres undefined),inconclusive: 0.827% [signal inhibitor],
O=C(Cc1ccccc1)Nc1sc2c(c1C(=O)Nc1ccc(Cl)cc1)CCCC2,,"inconclusive: 31.6 µM [rising, single point]"
COC(=O)c1cccc(NC(=O)CSc2nc3cccnc3n2C)c1,inconclusive: 0.783% [signal inhibitor],
Cc1cccc(NC(=O)CSc2nc3c([nH]c4ccccc43)c(=O)n2C)c1C,inconclusive: 0.838% [signal inhibitor],
N#C/C(=C\c1ccc(Cl)cc1)c1nc2ccccc2[nH]1,inconclusive: 3.66% [signal inhibitor],
CC(C)CCN(Cc1ccco1)C(=O)c1cc2c(Cl)nc3ccccc3c2s1,inconclusive: -0.737% [signal inhibitor],
Cn1nc(-c2ccc(Cl)cc2)c2cc(C(=O)NCCN3CCOCC3)sc21,inactive,
O=C(O)C1C2C=CC(C2)C1C(=O)Nc1ccc2c(c1)OCCO2 (centres undefined),inconclusive: 9% [signal inhibitor],
CCCOc1ccc(-c2nn(-c3ccccc3)cc2C2NC(=O)NC(C)=C2C(=O)OC)cc1C (centres undefined),inconclusive: 8.04% [signal inhibitor],
Cc1ccc2c(c1)CCCN2C(=O)Nc1ccc2c(c1)OCO2,inactive,
Cc1cc2oc3c(c(=O)c2cc1C)C(c1ccc(C(C)C)cc1)N(CCCN1CCOCC1)C3=O (centres undefined),inactive,
CCOc1ccccc1NC(=O)Nc1nnc(N2CCCCCC2)s1,inconclusive: 5.01% [signal inhibitor],
COC(=O)c1ccc(C2c3c(oc4cc(C)c(C)cc4c3=O)C(=O)N2CCCN(C)C)cc1 (centres undefined),,"inconclusive: 10 µM [signal inhibitor, partial curve]"
COc1cc(C(=O)Nc2ccc3oc(-c4ccccc4)nc3c2)cc(OC)c1OC,,inconclusive: 20 µM [signal inhibitor]
COc1cc(Cl)c(C)cc1NC(=O)CSc1ncc(S(=O)(=O)c2ccc(C(C)(C)C)cc2)c(=O)[nH]1,inconclusive: 8.37% [signal inhibitor],
COc1c2c(nc3ccccc13)O[C@@H]([C@@](C)(O)CO)C2,inactive,
O=C1Nc2ccc(S(=O)(=O)Nc3ccccc3O)c3cccc1c23,inconclusive: 18.3% [signal inhibitor],
CCOc1ccccc1Nc1cc(-c2ccccc2)nc(C)n1,inconclusive: 0.781% [signal inhibitor],
CC(=O)C(C(C)=O)c1c(Cl)c(O)c(O)c2c(C(=O)c3ccccc3)coc12,inconclusive: 7.65% [signal inhibitor],
CCCCN(CC)CCNc1c(NC2CCN(C(=O)OCC)CC2)c(=O)c1=O,inactive,
COCCn1c(=O)c(-c2ccc(F)c(F)c2)nc2cncnc21,"inactive: 0.813% [at 11.4 µM, scaled: untreated 0%, proteasome inhibitor 100%]",
CC(=O)Cc1nsc(NC(=O)c2ccc(-c3cc(C(F)(F)F)ccc3Cl)o2)n1,inactive,

SMILES,IkBa stabilization activation,Potency
COc1ccc(-n2ncc3c(NCCC4=CCCCC4)ncnc32)cc1,inconclusive: -2.8% [signal inhibitor],
Cc1noc(/C=C/c2ccco2)c1S(=O)(=O)N1CCC(C(=O)Nc2ccc(F)c(Cl)c2)CC1,inactive,
NC(=O)c1c(NC(=O)COC(=O)CSc2nnc(-c3ccc(Cl)cc3)o2)sc2c1CCC2,inconclusive: 8.74% [signal inhibitor],
COC(=O)CCc1c(C)c(C(=O)c2ccco2)c2ccccn12,,"inconclusive: 31.6 µM [rising, single point]"
Cc1ccc(N2CC(C(=O)Nc3ccc(Br)cc3)CC2=O)cc1 (centres undefined),inconclusive: -1.28% [signal inhibitor],
CCC1=Nc2cc(C(=O)NC3CCCC3)ccc2Sc2ccc(Br)cc21,,inconclusive: 7.94 µM [signal activator]
Cc1ccc([C@@]2(C)CC/C(=N/N=C3\CC[C@](C)(c4ccc(C)c(C)c4)c4cc(C)c(C)cc43)c3cc(C)c(C)cc32)cc1C,"inactive: -0.148% [at 11.4 µM, scaled: untreated 0%, proteasome inhibitor 100%]",
CS(=O)(=O)Nc1cccc(-c2nccc(-n3ccnc3)n2)c1,"inactive: -0.464% [at 11.4 µM, scaled: untreated 0%, proteasome inhibitor 100%]",
N[C@@H](CSS(=O)(=O)O)C(=O)O,inactive,
COc1ccc(C(=O)n2nc(-c3ccco3)nc2NCc2cccs2)cc1,inconclusive: -1.06% [signal inhibitor],
CN(C)c1ccc(N/C=C/C(=O)c2ccccc2)cc1,,"inconclusive: 3.16 µM [signal inhibitor, full curve]"
COC(=O)c1ccccc1NC(=O)Cn1nnc2sc(-c3ccccc3)cc2c1=O,inconclusive: 4.26% [signal inhibitor],
COc1ccc(-c2nc(-c3ccccc3)c(-c3ccc(O)cc3)[nH]2)cc1,inconclusive: -3.98% [signal inhibitor],
CC1=CC(C)(C)Nc2ccc(OC(=O)c3ccco3)cc21,inconclusive: -3.8% [signal inhibitor],
COc1ccccc1C(=O)Nc1nc(-c2ccccc2)ns1,inconclusive: 20.1% [signal inhibitor],
COc1cccc(C(=O)Nc2ccc(NC(C)=O)cn2)c1,inconclusive: 18% [signal inhibitor],
COc1ccc(Cn2c(C(=O)O)c(CNC3CCCCCC3)c3ccc(OC)cc32)cc1,inconclusive: 0.337% [signal inhibitor],
O=C(/C=C/c1ccc(F)cc1)Nc1nc2n(n1)C(c1ccc(Cl)cc1)C=C(c1ccccc1)N2 (centres undefined),inconclusive: 0.119% [signal inhibitor],
COc1c2c(nc3ccccc13)O[C@H]([C@@](C)(O)CO)C2,inactive,
CC1(C)O[C@@H]2O[C@H]([C@@H]3COC(C)(C)O3)[C@H](N)[C@H]2O1,"inactive: 0.573% [at 11.4 µM, scaled: untreated 0%, proteasome inhibitor 100%]",
Cc1ccc2sc(N3CCN(C(=O)CCS(=O)(=O)c4ccc(F)cc4)CC3)nc2c1C,inconclusive: 3.06% [signal inhibitor],
O=C(Nc1cnc2ccccc2c1)c1ccco1,inactive,
CCOC(=O)c1ccc(NC(=O)c2ncn(-c3ccccc3)n2)cc1,,"inconclusive: 20 µM [signal inhibitor, partial curve]"
